Among the data in the supplement of paper PMC9446081 are relative growth values, retold here.

The campaign covered roughly 39,000 compounds. About 220 (0.56%) showed activity. Some of the results follow.
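Further: static incubation at 37 °C against the wild-type strain, values averaged over two biological replicates.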

The assay relates to Escherichia coli K-12 BW25113. As to the kind of experiment: relative growth (OD600 normalised to plate interquartile mean) (fraction); higher = less growth inhibition, active = 0.2 or less. The conditions noted are these: 50 µM; LB; incubation time: overnight (16-24 h).
Turning to `Cc1nnc(=O)[nH]c1NNc1ccccc1`, the relative growth is inactive: 0.981.

As to `C[C@@H]1CN([C@H](C)CO)C(=O)Cc2cc(NS(=O)(=O)c3ccccc3)ccc2O[C@H]1CN(C)Cc1ccc(C(=O)O)cc1`, the relative growth was inactive: 0.979.

For the compound `COc1ccc2c3c(n(c2c1)C)[C@H](CO)N(C[C@]13CCN(CC1)C(=O)Nc1c(noc1C)C)C(=O)Nc1ccc(cc1)F`, the relative growth is inactive: 1.02.

With `COC(=O)c1cc(C)cc(=O)o1`, the relative growth was inactive: 1.02.

`Cc1noc(C)c1S(=O)(=O)N(C)C[C@@H]1Oc2ccc(NS(=O)(=O)c3cn(C)cn3)cc2CC(=O)N([C@@H](C)CO)C[C@H]1C`: the relative growth is inactive: 0.973.

In the case of `C[C@@H]1CN([C@@H](C)CO)C(=O)c2cc(NS(C)(=O)=O)ccc2O[C@@H]1CN(C)S(=O)(=O)c1ccccc1`, the relative growth was inactive: 0.988.

For the compound `Cc1ccc(S(=O)(=O)N(C)C[C@H]2Oc3ccc(NC(=O)Cn4cnnn4)cc3C(=O)N([C@@H](C)CO)C[C@H]2C)cc1`, the relative growth was inactive: 1.01.

Turning to `C[C@@H]1CN([C@H](C)CO)C(=O)Cc2cc(NC(=O)Nc3ccc(C(F)(F)F)cc3)ccc2O[C@@H]1CN(C)Cc1ccc(C(F)(F)F)cc1`, the relative growth is inactive: 1.03.

In the case of `CN(C)c1nc(N)nc(Cn2ccnc2)n1`, the relative growth is inactive: 1.01.

Regarding `Cc1cc(O)c(C=O)c2c1C(=O)Oc1c(COC(=O)C=CC(=O)O)c(O)c(C(=O)O)c(C)c1O2`, the relative growth is inactive: 1.14.

Regarding `C[C@H]1CN([C@@H](C)CO)C(=O)Cc2cc(NS(=O)(=O)c3cccs3)ccc2O[C@@H]1CN(C)S(=O)(=O)c1ccccc1`, the relative growth was inactive: 0.947.

As for `O=C(C[C@@H]1C[C@H]2c3cc(NC(=O)Nc4ccc(C(F)(F)F)cc4)ccc3O[C@H]2[C@@H](CO)O1)NCc1ccc(Cl)cc1`, the relative growth is inactive: 0.901.

For `Cc1noc(C)c1S(=O)(=O)N(C)C[C@H]1Oc2ccc(NC(=O)CCN3CCOCC3)cc2CC(=O)N([C@H](C)CO)C[C@@H]1C`, the relative growth is inactive: 0.994.

On to `C[C@@H](C[N+](C)(C)C)OC(N)=O`, for which the relative growth was inactive: 0.988.

In the case of `CC(C)n1cnnc1[C@@H](C)N`, the relative growth is inactive: 0.984.

Regarding `O=C(C[C@H]1C[C@@H]2c3cc(NC(=O)NC4CCCC4)ccc3O[C@@H]2[C@@H](CO)O1)NCc1ccc2c(c1)OCO2`, the relative growth is inactive: 1.02.

Regarding `CO[C@H](C(=O)N(C)C[C@H]1OCc2ccccc2-c2c(n(C)c3ccccc23)C(=O)N([C@@H](C)CO)C[C@H]1C)c1ccccc1`, the relative growth is inactive: 1.01.

`C[C@@H]1CCCCO[C@@H](CN(C)C(=O)Cc2ccccc2)[C@H](C)CN([C@H](C)CO)C(=O)c2cc(NC(=O)NC3CCCCC3)ccc2O1`: the relative growth was inactive: 1.

Take `CC(C)(O)C#Cc1ccc([C@H]2[C@@H](CO)N3CCCCN(S(C)(=O)=O)C[C@@H]23)cc1`: the relative growth is inactive: 1.01.

Take `COc1ccc(NC(=O)Nc2ccc3c(c2)C(=O)N([C@@H](C)CO)C[C@H](C)[C@@H](CN(C)Cc2ccncc2)OCCCC[C@@H](C)O3)cc1`: the relative growth is inactive: 1.02.

Take `O=C(C[C@@H]1C[C@@H]2c3cc(NC(=O)Nc4ccc(C(F)(F)F)cc4)ccc3O[C@@H]2[C@@H](CO)O1)NCc1ccc(Cl)cc1`: the relative growth was inactive: 1.

Turning to `O=C(C[C@@H]1CC[C@H]2[C@@H](COC[C@@H](O)CN2S(=O)(=O)c2ccccc2Cl)O1)NCCc1ccncc1`, the relative growth was inactive: 0.985.

For the compound `C[C@H](CO)N1C[C@H](C)[C@@H](CN(C)Cc2ccc3c(c2)OCO3)OCCCC[C@H](C)Oc2ccc(NC(=O)Nc3ccccc3)cc2C1=O`, the relative growth is inactive: 0.986.

With `CCOC(=O)c1c(C)n[nH]c1N`, the relative growth was inactive: 0.963.

With `COc1ccc(-c2cn3cc(C(=O)NCC(N)=O)nc3c(=O)n2CC2CC2)c(F)c1`, the relative growth is inactive: 0.976.

On to `Cc1noc(C)c1NC(=O)Nc1ccc2c(c1)C(=O)N([C@H](C)CO)C[C@@H](C)[C@H](CN(C)Cc1ccc(Cl)c(Cl)c1)OCCCC[C@@H](C)O2`, for which the relative growth was inactive: 0.939.

For the compound `CC(=O)C1CCN(C(C)=O)CC1`, the relative growth is inactive: 1.

In the case of `C[C@H](CO)N1C[C@H](C)[C@H](CN(C)Cc2ccc(Oc3ccccc3)cc2)Oc2ccc(NC(=O)Nc3ccc(C(F)(F)F)cc3)cc2CC1=O`, the relative growth is inactive: 1.02.

Turning to `COc1ccc(NC(=O)N(C)C[C@H]2OCCCC[C@H](C)Oc3ccc(NC(=O)Nc4ccc(C(F)(F)F)cc4)cc3C(=O)N([C@H](C)CO)C[C@@H]2C)cc1`, the relative growth was inactive: 0.996.

As to `CNC(=O)c1cnc2n1CCN(Cc1nccn1C)C2`, the relative growth is inactive: 0.971.

Consider `NC(=O)c1cc2ccccc2o/c1=N\O`, for which the relative growth was inactive: 0.929.

For `C[C@H](O)C#Cc1ccc2c(c1)O[C@@H](CN(C)C(=O)c1ccncc1)[C@H](C)CN([C@@H](C)CO)S2(=O)=O`, the relative growth was inactive: 1.03.

Take `C[C@@H]1CN([C@H](C)CO)C(=O)Cc2cc(NS(=O)(=O)c3cccs3)ccc2O[C@H]1CN(C)S(=O)(=O)c1ccc(F)cc1`: the relative growth is inactive: 1.03.

Consider `COC(=O)C[C@@H]1C(C)(C)[C@H](OC(C)=O)[C@@H]2[C@@H](OC(C)=O)[C@]34O[C@@]2(O)[C@]1(C)[C@H]3CC[C@]1(C)C4=CC(=O)O[C@H]1c1ccoc1`, for which the relative growth is inactive: 0.981.

Take `Cc1ccc(S(=O)(=O)N(C)C[C@H]2OCCCC[C@@H](C)Oc3ccc(NS(=O)(=O)c4ccc(Cl)cc4)cc3C(=O)N([C@H](C)CO)C[C@@H]2C)cc1`: the relative growth is inactive: 1.04.

On to `CC(C)[C@H]1C(=O)N[C@@H](CCCNC(=N)N)C(=O)NCC(=O)N[C@@H](CC(=O)O)C(=O)N[C@H](Cc2ccccc2)C(=O)N1C`, for which the relative growth was inactive: 1.01.

Consider `O=C(C[C@@H]1CC[C@H]2[C@@H](COC[C@@H](O)CN2Cc2ccccc2F)O1)N[C@H]1CCN(Cc2ccccc2)C1`, for which the relative growth is inactive: 0.995.

As for `C/C(=C/CC[C@@H](CO)[C@H]1CC[C@@]2(C)[C@H]3CC[C@@H]4C(C)(C)[C@H](O[C@H]5O[C@@H](CO)[C@@H](O)[C@@H](O)[C@@H]5O)C[C@H](O)[C@@]45C[C@@]35CC[C@@]12C)CO[C@H]1O[C@@H](CO)[C@@H](O)[C@@H](O)[C@@H]1O`, the relative growth was inactive: 0.982.

Take `C[C@@H]1CN([C@@H](C)CO)S(=O)(=O)c2ccc(C#Cc3ccc(F)cc3)cc2O[C@@H]1CN(C)C(=O)c1ccccn1`: the relative growth was inactive: 0.963.

Take `C[C@@H]1CN([C@@H](C)CO)C(=O)Cc2cc(NC(=O)Cn3cnnn3)ccc2O[C@@H]1CN(C)Cc1ccc2c(c1)OCO2`: the relative growth was inactive: 0.997.

For `CN(C)S(=O)(=O)N1C[C@H]2C[C@H](C(=O)Nc3cccnc3)[C@@H](C1)O2`, the relative growth was inactive: 0.989.

For `C[C@@H]1CN([C@@H](C)CO)C(=O)c2cc(NC(=O)Nc3ccc(C(F)(F)F)cc3)ccc2O[C@H]1CN(C)Cc1ccc(Cl)c(Cl)c1`, the relative growth was inactive: 1.02.

Take `C[C@H](CO)N1C[C@H](C)[C@H](CN(C)S(=O)(=O)c2cn(C)cn2)Oc2ncc(C#CC(C)(C)O)cc2C1=O`: the relative growth was inactive: 1.01.

For `O=C(C[C@@H]1CC[C@@H]2[C@H](COC[C@@H](O)CN2C(=O)c2ccccc2)O1)NCCCN1CCOCC1`, the relative growth was inactive: 0.999.

For the compound `C[C@@H]1CCCCO[C@@H](CN(C)C(=O)Cc2ccccc2)[C@H](C)CN([C@@H](C)CO)C(=O)c2cc(NS(=O)(=O)c3cccs3)ccc2O1`, the relative growth is inactive: 1.01.

On to `C[C@@H]1CN([C@@H](C)CO)C(=O)CCCn2nncc2CO[C@H]1CN(C)C(=O)Nc1ccc2c(c1)OCO2`, for which the relative growth is inactive: 0.988.

On to `NCc1nncn1-c1ccccc1`, for which the relative growth was inactive: 0.999.

For `C[C@H]1CCCCO[C@H](CN(C)CC2CC2)[C@@H](C)CN([C@@H](C)CO)C(=O)c2cc(NC(=O)Nc3ccc4c(c3)OCO4)ccc2O1`, the relative growth was inactive: 0.986.

Consider `NCc1cccc2c1OCCCO2`, for which the relative growth is inactive: 0.991.

Turning to `C[C@@H]1CN([C@@H](C)CO)C(=O)c2cc(NS(=O)(=O)c3ccccc3)ccc2O[C@H]1CN(C)Cc1ccc(Oc2ccccc2)cc1`, the relative growth is inactive: 0.993.

As to `C[C@@H]1CN([C@@H](C)CO)C(=O)c2cc(NC(=O)c3ccccc3)ccc2O[C@@H](C)CCCCO[C@H]1CN(C)S(=O)(=O)c1cccs1`, the relative growth is inactive: 1.01.

Consider `O=C(C[C@H]1CC[C@H]2[C@@H](COC[C@H](O)CN2Cc2cc(F)ccc2F)O1)N[C@@H]1CCN(Cc2ccccc2)C1`, for which the relative growth was inactive: 0.96.

On to `Cc1ccc(S(=O)(=O)Nc2ccc3c(c2)C(=O)N([C@@H](C)CO)C[C@H](C)[C@H](CN(C)Cc2ccccc2)OCCCC[C@H](C)O3)cc1`, for which the relative growth was inactive: 0.972.

As for `COCCNC(=O)C[C@H]1CC[C@H]2[C@@H](COC[C@H](O)CN2C(=O)Nc2ccccc2OC)O1`, the relative growth is inactive: 1.02.

On to `C[C@@H]1CN([C@H](C)CO)C(=O)Cc2cc(NC(=O)c3ccncc3)ccc2O[C@@H]1CN(C)C(=O)NC1CCCCC1`, for which the relative growth is inactive: 0.98.

With `C[C@H](CO)N1C[C@H](C)[C@H](CN(C)Cc2ccc(Cl)c(Cl)c2)Oc2ccc(NC(=O)CCCCCC(=O)Nc3ccccc3N)cc2CC1=O`, the relative growth was inactive: 0.982.

In the case of `C[C@H]1CN([C@@H](C)CO)C(=O)Cc2cc(NC(=O)Cn3cnnn3)ccc2O[C@@H]1CN(C)CC1CCCCC1`, the relative growth was inactive: 0.932.

As for `CN(C)CC(=O)N1[C@@H]2Cn3c(ccc(-c4ccncc4)c3=O)[C@H]1[C@@H](C(=O)NC1CCC1)[C@@H]2CO`, the relative growth was inactive: 0.993.

Regarding `C[C@@H]1CN([C@H](C)CO)C(=O)c2cc(NC(=O)c3ccncc3)ccc2O[C@H]1CN(C)Cc1ccncc1`, the relative growth is inactive: 0.985.

As for `C[C@H](CO)N1C[C@H](C)[C@@H](CN(C)C(=O)Nc2ccc(C(F)(F)F)cc2)OCCCC[C@H](C)Oc2ccc(NC(=O)c3ccccc3)cc2C1=O`, the relative growth was inactive: 1.04.

Take `C[C@@H]1CN([C@H](C)CO)C(=O)c2cc(C#Cc3ccccc3F)cnc2O[C@@H]1CN(C)C(=O)Cc1ccncc1`: the relative growth is inactive: 0.98.
